The list shows a part of the results. Values were computed here from the reads of four pooled replicates and scatter widely.
target: T1, Pho4 (S. cerevisiae) (UniProt P07270); assay: relative binding free energy (BET-seq); higher = weaker binding; details: reference: library average
T1 sequence: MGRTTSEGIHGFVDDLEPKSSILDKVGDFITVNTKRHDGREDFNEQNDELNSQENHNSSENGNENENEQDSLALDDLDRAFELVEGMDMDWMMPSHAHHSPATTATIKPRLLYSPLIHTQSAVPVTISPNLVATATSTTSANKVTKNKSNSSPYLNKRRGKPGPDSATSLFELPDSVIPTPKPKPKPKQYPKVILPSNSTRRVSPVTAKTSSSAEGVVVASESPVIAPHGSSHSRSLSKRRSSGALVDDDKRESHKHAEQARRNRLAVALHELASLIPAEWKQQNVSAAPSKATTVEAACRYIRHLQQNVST

Row | Sequence | relative binding free energy [kcal/mol]
1 | GGGGACACGTGGTTGG | 0.12
2 | GGAGGCACGTGTATTT | 0.05
3 | TGGCGCACGTGCTTTA | -0.09
4 | GGAGGCACGTGAGTCG | 0.14
5 | GGGATCACGTGGAGTC | 0.15
6 | CTATACACGTGAGGGG | 0.22
7 | GGATTCACGTGGGGGA | 0.32
8 | ATACGCACGTGGTGTG | -0.35
9 | ATGGGCACGTGAACTG | 0.1
10 | CGGGTCACGTGGCCGG | 0.11
11 | CGGTCCACGTGGGTGG | -0.24
12 | TTAGGCACGTGCTATT | -0.04
13 | GTAAACACGTGGTGTT | -0.11
14 | TTATACACGTGACGTT | 0.06
15 | TGTTTCACGTGCTTAG | 0.2
16 | AGGTACACGTGCGTTT | 0
17 | TACGGCACGTGTTGGT | -0.01
18 | CGGTTCACGTGGGTGT | 0.16
19 | GGGGGCACGTGTTGAG | 0
20 | GGGGACACGTGGATGT | 0.07
21 | AGTGGCACGTGGGCAA | -0.25
22 | TGGGTCACGTGTGCGC | 0
23 | AGAGTCACGTGTGGAG | 0.18
24 | CAAGACACGTGGTTGT | -0.03
25 | GGTGGCACGTGCAGCG | -0.05

Row | Sequence | relative binding free energy [kcal/mol]
26 | GGAGTCACGTGGATGC | 0.19
27 | TATCGCACGTGTGTAG | -0.05
28 | CAAGGCACGTGGGGCG | -0.34
29 | GCTTTCACGTGTTGTG | 0.27
30 | CAATTCACGTGGAGGG | 0.22
31 | GGCTACACGTGTGATG | 0.36
32 | AGTTTCACGTGGTTCA | 0.3
33 | GTTTTCACGTGGGTAG | 0.3
34 | TTGGTCACGTGTTGTC | 0.15
35 | GGAAACACGTGTGTGG | 0.05
36 | ATGGTCACGTGCGGCT | 0.02
37 | CGTTACACGTGTAGGA | 0.18
38 | TAATACACGTGGTGCT | -0.06
39 | GTCTGCACGTGGTAAG | 0.03
40 | TCTGGCACGTGGGTCT | -0.18
41 | TGGTTCACGTGAGACT | 0.37
42 | TCGGTCACGTGTGGGC | 0.23
43 | GTGTTCACGTGAATAT | 0.32
44 | TTAGGCACGTGAGCTG | 0.1
45 | GTGTACACGTGCTTAG | -0.02
46 | ATTGCCACGTGGGGCA | -0.17
47 | TGATTCACGTGATCGT | 0.28
48 | TATGGCACGTGGTAGA | -0.11
49 | TGTGGCACGTGCACAG | -0.04
50 | GTGTTCACGTGTCTAT | 0.29

Row | Sequence | relative binding free energy [kcal/mol]
51 | TGGAACACGTGACGTT | 0.14
52 | AGCGTCACGTGGAGGC | 0.02
53 | TAGAACACGTGGGGCG | -0.15
54 | TGTAGCACGTGAGTAA | 0.03
55 | GTGTGCACGTGGTCTG | -0.13
56 | AGCAGCACGTGGTGTA | -0.18
57 | TGAGTCACGTGAATGT | 0.34
58 | GTGGTCACGTGCAAGT | 0.04
59 | TGGGTCACGTGCGCTA | -0.01
60 | GCGATCACGTGTGAGG | 0.3
61 | TGGTGCACGTGCCTGT | -0.23
62 | AAATGCACGTGTGAGT | 0.19
63 | GGTGACACGTGGTGGT | 0.03
64 | TAGTACACGTGTGTCG | 0.11
65 | GGTATCACGTGGTGTA | 0.12
66 | AATGTCACGTGTGTTT | 0.13
67 | AGAGGCACGTGGTGTT | -0.2
68 | GGTGGCACGTGGCAGA | -0.09
69 | GCTTGCACGTGGGGTG | -0.11
70 | TGTTTCACGTGTGGTA | 0.34
71 | GACGTCACGTGCTGTG | 0.14
72 | TTAAGCACGTGGAGTT | 0.02
73 | TCTAGCACGTGGGTGC | -0.24
74 | AGTGCCACGTGAGTAT | 0.28
75 | ACGTGCACGTGTGGGT | 0.01

Row | Sequence | relative binding free energy [kcal/mol]
76 | GTGGGCACGTGTGGAT | 0.13
77 | GGTGGCACGTGAGGGG | 0.13
78 | AAGGGCACGTGGGCTC | -0.2
79 | GGAGGCACGTGGAAGG | -0.1
80 | TCTTGCACGTGTTGTA | -0.14
81 | CTTGGCACGTGGAGGA | -0.17
82 | GTTCTCACGTGGTCTT | 0.17
83 | TTTCACACGTGTTGGT | 0.18
84 | TTCGTCACGTGTTCGG | 0.17
85 | TGGTCCACGTGTTGGA | 0.15
86 | GATTCCACGTGGGGTT | 0.02
87 | GGGGTCACGTGTGGCC | 0.25
88 | TAGATCACGTGTTATA | 0.12
89 | GGTGCCACGTGGGTAC | -0.12
90 | GAATTCACGTGGGCTA | 0.37
91 | TCTTTCACGTGATTTG | 0.24
92 | GTTGTCACGTGTGACA | 0.03
93 | TGTCGCACGTGTGAAT | 0.03
94 | TATAGCACGTGGGAGT | -0.25
95 | AGTTGCACGTGTAATG | -0.02
96 | AGTTGCACGTGAGAAT | 0.24
97 | TTTGTCACGTGAAGAT | 0.42
98 | TGATTCACGTGATACT | 0.25
99 | TGATGCACGTGTAATG | 0.05
100 | GGGCGCACGTGGGGGA | -0.24

Row | Sequence | relative binding free energy [kcal/mol]
101 | TCGTGCACGTGATGGG | 0.23
102 | TAGATCACGTGTGTAT | 0.06
103 | GCATGCACGTGAGTTG | 0.15
104 | GCTTCCACGTGTTTGT | 0.23
105 | TTGGTCACGTGGAGAA | 0.13
106 | ATGGTCACGTGTTCGG | 0.07
107 | CCTGTCACGTGTGTGA | 0.06
108 | TAGTGCACGTGGTTGA | -0.06
109 | CGATGCACGTGAGGGT | 0.22
110 | TATATCACGTGTGGGC | 0.21
111 | TTTACCACGTGGTAGG | -0.02
112 | TGCGGCACGTGTTGGG | -0.09
113 | AGGAACACGTGATTTG | 0.18
114 | GTAGTCACGTGAAAAG | 0.45
115 | CTGGGCACGTGGTCCG | -0.18
116 | CTGATCACGTGTAGTG | 0.13
117 | GGGTTCACGTGATACG | 0.37
118 | GTGGCCACGTGGCGTT | -0.08
119 | GGTTGCACGTGTACAT | 0.11
120 | AGAGCCACGTGCGGGG | 0.06
121 | GATCTCACGTGAAGGT | 0.55
122 | AAGATCACGTGGTATA | 0.22
123 | TACTCCACGTGGTGTT | 0.02
124 | GGTTCCACGTGATAGG | 0.13
125 | AGCGTCACGTGGTGGT | 0.03

Row | Sequence | relative binding free energy [kcal/mol]
126 | ATGGGCACGTGCTGCG | -0.19
127 | GTGCTCACGTGGGTAG | 0.16
128 | GTTAGCACGTGTTGGT | 0.1
129 | GTATCCACGTGGGTTT | -0.11
130 | AAAGTCACGTGTGTTT | 0.25
131 | TTGGGCACGTGGGAAT | -0.22
132 | GGAGCCACGTGGTTGT | -0.08
133 | ATGTCCACGTGTGAGG | -0.03
134 | TTTGGCACGTGTGACA | -0.01
135 | TCTTTCACGTGCATGT | 0.31
136 | CAGGGCACGTGCGAGG | -0.15
137 | ATAGGCACGTGGGCTA | -0.33
138 | ATGTACACGTGAATGA | 0.34
139 | CGGAGCACGTGCAGGG | -0.08
140 | CGCGTCACGTGGGTAT | -0.1
141 | TGCGGCACGTGGTCTG | -0.23
142 | TGCAGCACGTGTGATT | 0.05
143 | TGTTACACGTGTCTGG | 0.16
144 | GAGTTCACGTGTTTAT | 0.28
145 | TGCGGCACGTGTGGAT | -0.05
146 | AGGTGCACGTGTAGGA | -0.08

Reference: the BET-seq Pho4 binding data (Le et al. 2018)
